Laboratory results published in article PMC6919601, “Identification of Plasmodium dipeptidyl aminopeptidase allosteric inhibitors by high throughput screening” (PLoS ONE, 2019).
Out of some 110,000 compounds screened, about 230 (0.21%) showed an effect of 50% or more. Some of the results follow.

Biological target: DPAP1 (Plasmodium falciparum, UniProt Q8IIJ9)
Experiment: primary screen, percent inhibition; read by cleavage of a fluorogenic dipeptide substrate; higher = more effect of the substance
Parameters: species or system P. falciparum D10 trophozoite lysates; single well
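Further: 30 min substrate incubation versus DMSO and 10 µM JCP410 controls.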

DPAP1, sequence (Q8IIJ9 whole entry, looked up): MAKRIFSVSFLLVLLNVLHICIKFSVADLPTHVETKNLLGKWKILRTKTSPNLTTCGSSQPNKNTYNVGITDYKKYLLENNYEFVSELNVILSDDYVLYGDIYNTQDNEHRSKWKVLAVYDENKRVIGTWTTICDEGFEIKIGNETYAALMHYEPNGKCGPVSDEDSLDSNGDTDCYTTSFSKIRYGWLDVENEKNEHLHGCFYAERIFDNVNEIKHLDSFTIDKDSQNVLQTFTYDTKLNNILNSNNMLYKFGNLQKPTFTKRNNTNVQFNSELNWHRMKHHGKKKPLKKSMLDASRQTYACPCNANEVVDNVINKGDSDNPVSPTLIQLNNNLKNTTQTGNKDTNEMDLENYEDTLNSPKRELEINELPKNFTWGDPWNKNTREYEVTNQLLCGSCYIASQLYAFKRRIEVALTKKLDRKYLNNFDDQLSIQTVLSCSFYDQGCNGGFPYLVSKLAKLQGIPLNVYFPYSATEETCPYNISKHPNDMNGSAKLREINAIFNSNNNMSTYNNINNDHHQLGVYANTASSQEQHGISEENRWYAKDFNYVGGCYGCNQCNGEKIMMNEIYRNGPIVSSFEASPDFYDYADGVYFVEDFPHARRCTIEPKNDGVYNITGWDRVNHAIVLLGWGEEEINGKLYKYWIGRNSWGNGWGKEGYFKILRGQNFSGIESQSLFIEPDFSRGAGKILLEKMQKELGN

SMILES | % Inhibition @ 10 uM [%]
CCCCCCCc1c(C#N)c(N)nc(S)c1C#N | 71.3
Cc1ccc(-c2csc(NC(=O)CN3CCCCC3)n2)cc1 | 0.431
Oc1ccc(-c2csc(-c3ccncc3)n2)cc1O | -10.1
COCCN1Cc2cccc(C(=O)N3CCC(N4CCCCC4)CC3)c2C1=O | 1.02
COc1ccc(Cn2nnc3c(O)nc(C4CCCN(C(=O)c5ccccc5)C4)nc32)cc1 (centres unmarked) | 2.54
CNc1nc(CC(=O)C2CC2)nc(OC)n1 | 2.62
CSc1nc(O)cc(=O)n1-c1ccccc1 | -2.6
COc1cccc(-c2[nH]nc3c2C(c2cccs2)NC3=O)c1 (centres unmarked) | -3.35
COc1cccc(NC(=O)COc2ccc(C)cc2Br)c1 | 1.04
COc1ccc(C(C)NC(=O)c2ccc(OC)c(OC)c2)cc1 (centres unmarked) | -8.49
O=[N+]([O-])c1ccc(S(=O)(=O)N(Cc2ccccc2)Cc2ccccc2)cc1 | -1.8
Cc1cc(C(=O)N2CCN(Cc3ccccc3)CC2)on1 | 9.05
O=C1c2cccc3c(N4CCOCC4)ccc(c23)C(=O)N1CCO | 3.32
CCOc1ccc(NC(=O)/C(C#N)=C\c2c[nH]c3ccccc23)cc1 | 2.05
O=C(NCCC1=CCCCC1)C1CCN(c2nc3ccccc3n3cccc23)CC1 | 6.84
O=C1CC(c2ccc(Cl)cc2)c2cc3c(cc2N1)OCO3 (centres unmarked) | 0.231
COC(=O)c1ccccc1-n1cc2c(c1-c1ccc(C(C)(C)C)cc1)c(=O)n(C)c(=O)n2C | 0.366
CCCCc1c(O)n2nc(C)ccc2[n+](-c2ccc(C)cc2)c1=O | 2.32
CCOC(=O)C1CCN(Cc2ccc(Cl)c(Cl)c2)CC1 | 1.2
O=C(Nc1nnc(C23C[C@H]4C[C@@H](C2)C[C@@H](C3)C4)s1)C1CCN(C(=O)NC2CCCCC2)CC1 | -4.67
Cc1cccc(OCCCCCN2CCCC2)c1C | 4.33
O=C(NCc1cccnc1)c1csc2c1CCCC2 | -1.44
c1ccc(Cn2c(CSc3nnnn3-c3ccccc3)nc3ccccc32)cc1 | 4.54
COc1ccc2ccnc(C3C(=O)c4ccccc4C3=O)c2c1 | -2.91
CCc1cccc(NC(=O)CCC(=O)Nc2cccc(CC)c2)c1 | -7.01
COc1ccc2c(c1)-c1nc(NC(=O)C34CC5CC(CC(C5)C3)C4)sc1CC2 | -1.92

SMILES | % Inhibition @ 10 uM [%]
COc1ccc(Nc2oc(COc3ccccc3C)nc2C#N)cc1 | -3.16
N#CC1=C(N)OC2=C(C(=O)CCC2)C1c1ccc(F)cc1F (centres unmarked) | -3.72
O[C@]12CCCC[C@@H]1[C@@H](c1ccc(F)cc1)NCC2 | 7.92
Cc1nn(-c2ccccc2)c2c1C(c1ccc(F)cc1)C(C#N)=C(N)O2 (centres unmarked) | -0.996
CCC1CCc2c(sc(NC(=O)c3ccc4c(c3)OCO4)c2C(N)=O)C1 (centres unmarked) | -1.61
COc1cc2ccccc2cc1C(=O)Nc1cccc(S(N)(=O)=O)c1 | 0.751
Cc1ccc(-n2cnc3cc(C(=O)NC4CCCC4)ccc32)cc1Cl | -0.256
CC/C(=N/OC(=O)c1ccc(OC)cc1)C(=O)c1cccs1 | -1.4
O=C(Cn1cnc2onc(-c3ccc(F)cc3)c2c1=O)N1CCC(N2CCCCC2)CC1 | -3.05
O=C(O)C1CCCN(S(=O)(=O)c2cccc(F)c2)C1 (centres unmarked) | 2.05
Nc1nonc1-c1noc(CCCN2C(=O)c3ccccc3C2=O)n1 | -5.6
CCCCCC(=O)Nc1nc2nc(C)c(Cl)c(C)n2n1 | -3.08
O=C(O)CCC(=O)NCc1ccccc1 | -6.22
O=C(c1cc2n(n1)C(C(F)(F)F)CC(c1ccc(Br)cc1)N2)N1CCCCC1 (centres unmarked) | -0.0938
CN1CCN(CCc2ccccc2)CC1 | 0.472
Cc1ccc(S(=O)(=O)NCC(C)NC(=O)CN2CCCCC2)cc1 (centres unmarked) | -3.13
COC(=O)N1CCN(c2ccc([N+](=O)[O-])cc2)CC1 | 0.708
CCCn1c(=N)n(CC(=O)OC)c2ccccc21 | -4.98
COC(=O)c1cc(S(=O)(=O)NCCCN2CCN(Cc3ccccc3)CC2)cn1C | 2.29
C#CCSc1nnc(-c2ccccc2)c(O)n1 | -1.55
CC(=O)/C(C)=C(\NC(=O)c1ccccc1)c1ccccc1 | 2.58
CCOc1ccc(C2CC(=O)NC3=C2C(=O)CCC3)cc1OC (centres unmarked) | 6.28
CC1=C(C(=O)OCC2CCCCC2)C(c2ccc(Cl)c(Cl)c2)NC(=O)N1 (centres unmarked) | -3.14
Cc1oc(-c2ccc(C(=O)NC(C)c3ccccc3)cc2)nc1COc1ccccc1 (centres unmarked) | -4.97
N#CC1=C(SCC(=O)O)NC(=O)C(C#N)C12CCCC2 (centres unmarked) | -3.66
COc1ccc2c(c1)CCC1C2=NN(C(C)=O)C1c1ccc(Br)cc1 (centres unmarked) | -7.02

SMILES | % Inhibition @ 10 uM [%]
COc1cccc(/C=C(\C)C(=O)c2c(C)cc(C)nc2O)c1OC | 21.3
COc1ccc(NCN2C(=O)c3ccccc3C2=O)cn1 | 4.22
O=C(c1ccccc1)c1cccn1CC(=O)N1CCC(N2CCCCC2)CC1 | -0.522
CCn1ncc(C(=O)Nc2c(C)nn(Cc3ccc(Cl)c(Cl)c3)c2C)c1C | -6.66
CC(=O)N(c1ccc(C)cc1)C1SC(=O)N(c2ccccc2)C1=O (centres unmarked) | 4.74
O=[N+]([O-])c1ccc(-n2nnnc2/C=C/c2ccccc2)cc1 | -5.9
Cc1noc(C)c1CCNC(=O)C1CCCN(c2ncnc3c2nc2n3CCCCC2)C1 (centres unmarked) | 0.721
Cc1noc(C)c1CSc1nc2ccccc2[nH]1 | -3.23
O=C(NC1CCCC1)C1CCN(c2nnc(-n3cccc3)s2)CC1 | -1.6
CC(=O)N1C(=O)C2(C(C#N)=C(N)OC3=C2C(=O)CC(c2ccco2)C3)c2ccccc21 (centres unmarked) | -1.84
Cc1ccc(N2CCN(C(=O)c3ccccc3NC(=O)c3ccccc3C(=O)O)CC2)cc1 | -9.82
CCOc1ccc(N(CC(=O)NC2CCCCC2)S(=O)(=O)c2ccc(C)cc2)cc1 | -4.31
CC(=O)N1CCC2(CC1)OC(=O)C(C)=C2C(=O)NCCc1ccc(Cl)cc1 | 0.822
O=C(Nc1cc(Cl)ccc1Cl)C1CCN(S(=O)(=O)c2ccccc2)CC1 | -3.21
OCCN(CCO)C1CCSC1 (centres unmarked) | -1.15
O=C1c2ccccc2-c2nn(C(=O)c3ccco3)c3cccc1c23 | -0.958
CC(C)Oc1ccccc1/C=C1\SC(=N)N(c2nccs2)C1=O | 50.1
CCOC(=O)C1=C(CNC(C)c2ccccc2)NC(=O)NC1c1ccccc1 (centres unmarked) | -4.97
COc1ccc(/C=C2N=C(/C=C/c3ccc(C)cc3)OC\2=O)cc1 | -3.62
Cc1cccc(CSc2nc(O)c3[nH]cnc3n2)c1 | -1.35
O=C(CSc1nc2ccccc2s1)c1ccc(-c2ccccc2)cc1 | 1.66
CCOc1c(Cl)cc(C(=O)N(Cc2cccc(OC)c2)C2CCS(=O)(=O)C2)cc1Cl (centres unmarked) | -3.12
O=C(NCc1ccccn1)C1CCCCC1 | 0.408
COc1ccc2[nH]cc(CCNC(=O)c3cnn(-c4ccc(F)cc4)c3C3CCNCC3)c2c1 | -4.07
O=S(=O)(c1ccccc1)c1nnn2c1nc(N1CCC3(CC1)OCCO3)c1cc(Cl)ccc12 | 0.291
Cc1ccc(S(=O)(=O)N(Cc2nc(-c3ccccc3)no2)C2CCCCC2)cc1 | 3.74

SMILES | % Inhibition @ 10 uM [%]
O=C1C=C(N2CCCCC2)c2ccccc2C1=O | -6.17
C[C@@H](C[C@H](NC(=O)c1ccc(-c2ccccc2Cl)cc1)C(=O)NC1(C#N)CCN(CC(F)(F)F)CC1)c1ccccc1 | -3.14
COc1ccc(-c2cn3c(n2)sc2cc(C(=O)NC4CCCC4)ccc23)cc1 | 2.73
CC1CCN(S(=O)(=O)c2cc(Br)ccc2Br)CC1 | -8.57
CC(=O)CC1(O)C(=O)Nc2ccccc21 (centres unmarked) | -1.29
CCOc1ccc(-c2[nH]nc3c2C2(C(=O)Nc4ccc(C)c(Br)c42)C(C#N)=C(N)O3)cc1 (centres unmarked) | -4.67
N#CC1=C(N)Oc2cc(N)ccc2C1c1cccnc1 (centres unmarked) | 1.35
CCOC(=O)c1c(NC(=O)/C=C/C(=O)O)sc2c1CC(C(C)C)OC2 (centres unmarked) | -1.52
O=C(CCCN1C(=O)c2ccccc2C1=O)Nc1ccc(S(=O)(=O)Nc2nccs2)cc1 | -0.638
CC(C)(C)NC(=O)C(=O)NCc1ccc(Cl)cc1Cl | 3.35
CC(C)(C)NS(=O)(=O)c1ccc(OCC(=O)NCc2ccco2)cc1 | -3.92
Cc1oc2ccc(O)c(CN3CCN(C)CC3)c2c1C(=O)NC1CCCCC1 | -6.72
CC(=O)Nc1cc2nn(-c3ccc(Cl)cc3)nc2cc1C | -1.07
CC(=O)Nc1cccc(N2CCCC2=O)c1 | 6.09
CCCCn1c(-c2ccc(OCC)cc2)cnc1NCc1ccccc1O | -2.91
O=C(CSC1=NCCS1)N1CCN(c2ccc(Cl)cc2)CC1 | 2.32
CCCCCCNC(=O)Cc1c(C)nc2cc(-c3ccccc3)nn2c1C | -2.25
Fc1ccccc1N1CCN(Cc2ccc(Br)s2)CC1 | 0.847
CC1=C(C(=O)OCC2CCCO2)C(c2cccc(Cl)c2Cl)CC(=O)N1 (centres unmarked) | 3.67
Cc1cc(C)n(-c2nc3ccccc3nc2Cl)n1 | 0.472
Cc1oc2ccc(O)c(CN3CCOCC3)c2c1C(=O)OCC(C)C | -2.99
CS(=O)(=O)N(CC(=O)Nc1ccc(CC#N)cc1)c1cccc(F)c1 | -0.303
Cc1nn(-c2ccccc2)c2sc(C(=O)Nc3ccccc3C#N)cc12 | -2.97
